PubChem BioAssay AID485313 (National Center for Advancing Translational Sciences (NCATS), 2010)
About 7,600 (2.4%) of roughly 320,000 compounds were called active. Inconclusive results, whose numbers are uncertain, are shown with a selection of clear calls. Calls follow the shape of the dose curve; as a rule, active = well fitted activation curve with a large enough effect; inconclusive = small, poorly fitted or top-dose-only effect; inactive = no such curve, though single readings can be large or run the other way. Potencies of inconclusive entries are left out as doubtful fits.
Potency is read from the fitted curve at half-maximal effect; tags tell the direction and shape of the fitted curve.

Experiment: qHTS Assay for NPC1 Promoter Activators; also: nearly all actives have a fitted effect of over 60% in size
Settings: Huh7 NPC1 promoter luciferase reporter, 24 h; series mostly up to 9.22 µM
Method in brief: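 Luciferase expression driven by the NPC1 promoter was measured in stably transfected Huh7 cells after a 24 h compound incubation, using a luciferase reagent and a luminescence read.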
For O=C(Nc1ccc(Cl)cn1)c1cc2c(s1)-c1ccccc1OC2, the Potency was inconclusive [activator, single point]. With O=C(Nc1nc2ccccc2[nH]1)Nc1ccccc1F the Potency was inconclusive [activator, single point]. With COc1ccc(-c2csc(Nc3ncccn3)n2)cc1C the Potency was active: 0.708 µM. In the case of Cc1ccc(OCCNC(=O)c2ccc(C)cc2)cc1, the Potency is reported as inconclusive [activator, partial curve]. With CCOc1ccc(CCNC(=O)Cc2ccc(NC(=O)C3=C(C)OCCS3)cc2)cc1 the Potency was inconclusive [activator, partial curve]. With CCCn1c(C)cc(C(=O)COC(=O)c2ccc[nH]c2=O)c1C the Potency was inconclusive [activator, partial curve]. With O=C(c1ccc(-c2cccc(Cl)c2Cl)o1)N1CCOCC1 the Potency was inconclusive [activator, single point]. With Cc1cc(C)cc(C(=O)OCC(=O)NC(=O)NC2CCCC2)c1 the Potency was “inactive”. In the case of Cc1nc(-c2ccccc2)nc2[nH]c(-c3ccccc3)cc(=O)c12, the Potency is reported as “inactive”. In the case of CCCS(=O)(=O)Nc1cccc(-c2nc3cccnc3s2)c1, the Potency is reported as inconclusive [activator, single point]. With COc1ccc(NC(=O)c2ccc(C)cc2Cl)c([N+](=O)[O-])c1 the Potency was inconclusive [activator, single point]. With COC(=O)c1sc2nc3c(cc2c1N)COC(C)(C)C3 the Potency was active: 2.82 µM. With CCCc1nc2oc3c(NCC(C)O)ncnc3c2c2c1CCCC2 (stereo not drawn) the Potency was “inactive”. In the case of C/C(=N\OC(=O)c1ccc(F)cc1)c1sc(-c2ccccc2)nc1C, the Potency is reported as active: 2 µM. With CC(=O)n1nc(-c2ccc(Cl)cc2)nc1NCc1ccco1 the Potency was inconclusive [activator, partial curve]. In the case of c1ccc(C2=NNC(=NC3CC3)SC2)cc1, the Potency is reported as inconclusive [activator, full curve]. With CCOC(=O)c1sc(=NC(=O)c2cccc(C)c2)n(C)c1C the Potency was inconclusive [activator, single point]. In the case of CN(CC(=O)N1CCCCCC1)S(=O)(=O)c1ccc(F)cc1, the Potency is reported as inconclusive [activator, partial curve]. With COc1ccc2[nH]c(C(=O)Nc3ccc(F)cc3Br)cc2c1 the Potency was “inactive”. For Cc1[nH]c2ccccc2c1C(=O)C(=O)NC1CC1, the Potency was inconclusive [activator, full curve]. In the case of O=CN1CCN(C(=S)Nc2ccc(OC(F)F)cc2)CC1, the Potency is reported as “inactive”. In the case of Nc1nc(Nc2ccc(Cl)cc2)nc(NCCO)c1[N+](=O)[O-], the Potency is reported as inconclusive [activator, partial curve]. With Cc1cc(C(=O)Nc2ccc(Br)cc2)cs1 the Potency was inconclusive [activator, full curve]. With N=c1oc2cc(O)ccc2cc1C(=O)Nc1ccc(F)cc1 the Potency was inconclusive [activator, partial curve]. For Cc1noc(C)c1C(=O)Nc1nc2ccc(S(C)(=O)=O)cc2s1, the Potency was inconclusive [activator, partial curve]. For CC(=O)N1CCN(c2ccc(NCc3ccc(C)s3)cc2)CC1, the Potency was “inactive”. For c1ccc(Nc2ccnc(Nc3ccccc3)n2)cc1, the Potency was active: 2.51 µM. In the case of O=C(NNC(=O)c1ccccc1Br)c1cccc(Cl)c1, the Potency is reported as inconclusive [activator, single point]. In the case of COc1ccc(/C=C/C(=O)Nc2cccnc2Cl)cc1, the Potency is reported as active: 2 µM. With Cc1scc(C(=O)N/N=C/c2ccc(Cl)s2)c1C the Potency was active: 3.55 µM. With CCCCN1CC(O)=C(c2nc3ccccc3[nH]2)C1=N the Potency was inconclusive [activator, partial curve]. With CCCC(=O)N1CCN(c2nc3ccc(Br)cc3s2)CC1 the Potency was “inactive”. In the case of O=C(Nc1ccncc1)c1sc2ccccc2c1Cl, the Potency is reported as inconclusive [activator, single point]. In the case of O=Nc1c(-c2c(O)[nH]c3ccccc23)[nH]c2ccccc12, the Potency is reported as active: 4.61 µM. With COc1ccc(NC2=NC(C)(CO)CS2)cc1 (stereo not drawn) the Potency was inconclusive [activator, single point]. In the case of CC1CCC(NC(=O)c2ccc3nc[nH]c3c2)CC1 (stereo not drawn), the Potency is reported as inconclusive [activator, single point]. For O=C(CCNC(=O)c1ccco1)Nc1nc2ccccc2s1, the Potency was “inactive”. With CCCn1nnc(NC(=O)c2ccc3c(c2)OCO3)n1 the Potency was active: 2.82 µM. For COc1ccsc1C(=O)N1CCN(Cc2ccc3c(c2)OCO3)CC1, the Potency was “inactive”. For O=C(c1ccc(Cl)c(S(=O)(=O)N2CCCCC2)c1)N1CCN(c2ccccc2)CC1, the Potency was “inactive”. In the case of Cc1cc(C(F)(F)F)c2c(N)c(C(=O)Nc3cc(C)on3)sc2n1, the Potency is reported as inconclusive [activator, full curve, poor fit]. With COc1cccc(-c2nnc(SCC(=O)N3CCOCC3)o2)c1 the Potency was inconclusive [activator, partial curve]. For CC(=O)c1cccc(NC(=O)c2ccc3c(c2)OCO3)c1, the Potency was inconclusive [activator, partial curve]. For COCCCNC(=O)c1ccc(-c2csc(C)n2)cc1, the Potency was inconclusive [activator, single point]. For Cc1cc(NC(=O)c2cccc(Br)c2)n[nH]1, the Potency was inconclusive [activator, partial curve]. With CCN1CCN(C(=O)c2cc(-c3ccc(Cl)s3)nc3ccccc23)CC1 the Potency was “inactive”. In the case of CCC(CC)c1nnc(NC(=O)c2ccc3ccccc3n2)s1, the Potency is reported as inconclusive [activator, single point]. With Cc1cccc(N/N=C/c2ccc(C)s2)c1 the Potency was inconclusive [activator, partial curve]. In the case of Clc1ccc(-c2nnc(N3CCOCC3)o2)cc1, the Potency is reported as inconclusive [activator, single point]. For CC(C)(C)C1CCC(=O)N(CCSc2ccccc2)CC1 (stereo not drawn), the Potency was active: 2.51 µM. With COc1ccc(-c2nc(C3CCCCC3)no2)cc1OC the Potency was inconclusive [activator, single point]. In the case of COc1ccc2nc(NC(=O)c3ccccc3F)sc2c1, the Potency is reported as active: 0.447 µM. For c1ccc(CSc2nnc(Cc3ccccn3)o2)cc1, the Potency was inconclusive [activator, partial curve]. For Oc1cc(Cc2ccccc2)cnc1CN1CCOCC1, the Potency was inconclusive [activator, single point]. For O=C(/C(=C/c1ccc(Cl)cc1)c1nc2ccccc2[nH]1)c1ccccc1, the Potency was inconclusive [activator, single point]. For O=C(O)c1ccc(N=NN2CCCCCC2)cc1, the Potency was inconclusive [activator, full curve]. With COC(=O)N1N=C(c2ccccc2)CC1(O)C(F)(F)F (stereo not drawn) the Potency was inconclusive [activator, partial curve]. With CC(=O)Cn1nnc2sc(-c3ccccc3)cc2c1=O the Potency was inconclusive [activator, single point]. With CC1(C)CC(N(Cc2cccs2)C(=O)c2ccco2)CCO1 (stereo not drawn) the Potency was “inactive”. In the case of Cc1cc(C(=O)N/N=C/c2c(C)[nH]n(-c3ccccc3)c2=O)n[nH]1, the Potency is reported as “inactive”. With c1ccc(-c2nc(-c3nccc4ccccc34)oc2-c2ccccc2)cc1 the Potency was inconclusive [activator, single point]. In the case of COc1cc(SC)ccc1C(=O)Nc1ccc(Br)cn1, the Potency is reported as active: 0.316 µM. With O=[N+]([O-])c1ccccc1/C=N/Nc1nccnc1Cl the Potency was inconclusive [activator, single point]. In the case of CCN1/C(=C2\OC(=S)N(C)C2=O)Sc2ccccc21, the Potency is reported as inconclusive [activator, single point]. With Cc1ccc(NC(=O)n2ncc3c(C)cccc32)cc1F the Potency was inconclusive [activator, partial curve, poor fit]. For Cc1nc(C(C)N(C)Cc2nc(-c3ccc4c(c3)OCO4)no2)c(C)s1 (stereo not drawn), the Potency was “inactive”. In the case of O=C(O)c1cc(S(=O)(=O)Nc2cccc3ccccc23)c(Cl)cc1Cl, the Potency is reported as “inactive”. With O=C(Nc1ccc(/C=C/c2nc3ccccc3o2)cc1)c1ccc(F)cc1 the Potency was inconclusive [activator, partial curve]. With COc1ccccc1C(=O)NNC(=O)c1cccc(Br)c1 the Potency was active: 2.82 µM. For CC(=O)Nc1ccc(/C=C/c2ccc3c([N+](=O)[O-])cccc3n2)cc1, the Potency was inconclusive [activator, full curve, poor fit]. With Cc1ccc(N2C(=O)S/C(=C/c3cn(C)c4ccccc34)C2=O)cc1 the Potency was inconclusive [activator, single point]. For COc1ccc(C(=O)O/N=C(\N)c2ccccn2)cc1, the Potency was active: 0.112 µM. With O=C(Nc1cccc([N+](=O)[O-])c1)Nc1ccc2c(c1)OCCO2 the Potency was inconclusive [activator, single point]. In the case of Cn1sc(NC(=O)c2cccc(Cl)c2)nc1=O, the Potency is reported as inconclusive [activator, partial curve]. With COc1ccc(NC(=O)CSc2nc3c(c(=O)n(C)c(=O)n3C)n2C)c(OC)c1 the Potency was “inactive”. With OCCNCCCCOc1ccc(OCc2ccccc2)cc1 the Potency was inconclusive [activator, single point]. For CC(C)CCNC(=O)c1ccc2c(Cl)c3c(nc2c1)CCC3, the Potency was active: 2 µM. With CS(=O)c1ccccc1-c1nc(-c2ccc(Cl)cc2)no1 (stereo not drawn) the Potency was inconclusive [activator, single point].
